Measurements: PMC10668032
This is one part of the list. At the low end of the ranking, values are background and their order means little.

target: SIX1 homeodomain (reference allele) (UniProt Q15475); experiment: universal protein binding microarray; conditions: Universal all-10-mer PBM (8x60K, AMADID 030236), 300 nM GST-tagged protein, Alexa Fluor 488 anti-GST; buffer, salt, pH and temperature not stated; high values mean tight binding; most listed sequences are background and not binding sites; double strand, one strand shown

Sequence | binding signal
GCATGGGA | -0.00959 E-score
ACCTTAGC | -0.103 E-score
AAGCGTTG | -0.22 E-score
ATAAACTC | -0.0649 E-score
CAAGATCG | 0.168 E-score
CCACATGC | -0.0369 E-score
CTACAGCA | -0.0682 E-score
AAAATCCG | 0.175 E-score
GATAGAAC | 0.0184 E-score
CGCTACCA | -0.276 E-score
ATGATTTC | -0.187 E-score
AAGATAAG | 0.115 E-score
ACATATGG | 0.0813 E-score
GGTGCAGA | 0.0756 E-score
CCCCTTCA | -0.146 E-score
ACCTAGCG | -0.0893 E-score
ATTGGCCG | -0.201 E-score
ACAGCCTA | -0.119 E-score
GCGTATAC | 0.295 E-score
ACGAGCAT | -0.0614 E-score
GAGTCATC | -0.0135 E-score
AGGGTCAC | -0.0511 E-score
CTACGTGA | -0.0784 E-score
CTCTTGTC | -0.0196 E-score
GCATACCC | 0.289 E-score

Sequence | binding signal
GTTGGGTA | 0.0847 E-score
ACATAACG | -0.128 E-score
GAGCCGCA | -0.23 E-score
CCTGTAGC | -0.271 E-score
AAGAGAGT | -0.326 E-score
ACCCCAGG | 0.122 E-score
CTCCACTC | -0.126 E-score
AGGGTTAT | -0.00877 E-score
AACCTCAC | -0.178 E-score
CCACTTTC | -0.181 E-score
CAGGGAAG | -0.258 E-score
ACCCTTAG | 0.0833 E-score
CCACTCCG | -0.00756 E-score
CTAGTTAA | -0.227 E-score
CTACTCAG | -0.0974 E-score
ATTTGAAG | -0.23 E-score
GAGACGAA | 0.12 E-score
AACGTGGA | -0.153 E-score
TGACAGCA | -0.146 E-score
ATTATACA | 0.237 E-score
ATAGCGCC | 0.0195 E-score
AACTAAAG | -0.0743 E-score
CCCAGCGG | 0.0341 E-score
GTCGAAGA | -0.091 E-score
GGATGAAA | 0.133 E-score

Sequence | binding signal
CAATCTCG | 0.0438 E-score
ATTGACAG | -0.212 E-score
TAAAGTCA | -0.2 E-score
CAGAGGAA | -0.102 E-score
GCGCGAAC | -0.116 E-score
GACAATGC | -0.19 E-score
AAAGGTTG | -0.147 E-score
AAGTCGAC | -0.0146 E-score
ACTATCAG | 0.217 E-score
ATGGTGTG | 0.183 E-score
GGATCTAC | 0.257 E-score
AACACACT | -0.157 E-score
AGTGTCAC | 0.253 E-score
ACCACGAT | 0.139 E-score
GCGGAAGA | 0.0167 E-score
AGAGACCG | -0.155 E-score
AGATGACC | -0.0612 E-score
GCGCTCAA | -0.135 E-score
ATAGTTCA | -0.0166 E-score
GCAAAAAA | -0.122 E-score
CCGCCATA | 0.209 E-score
CGATACTC | 0.454 E-score
AAACCTTT | -0.217 E-score
CCTACTTA | -0.00881 E-score
GTGCATGA | -0.185 E-score

Sequence | binding signal
ATCTTACC | 0.296 E-score
AAAGGTAG | -0.085 E-score
CAGTCGCC | -0.168 E-score
ACGGCTCC | 0.0451 E-score
CAGACCGG | -0.0211 E-score
CCTTGTTC | -0.141 E-score
GACTTCAC | -0.159 E-score
ATTATAGG | 0.117 E-score
GCCATAAA | 0.0397 E-score
GGACATTA | -0.0549 E-score
GTCAGATA | 0.273 E-score
GAATGTAC | -0.191 E-score
CGATTGGC | -0.225 E-score
ATGCATAC | -0.0354 E-score
TCTTAGCA | -0.0178 E-score
ATGCTGAG | -0.083 E-score
TATGACCA | -0.0717 E-score
GGCTAGAA | 0.0223 E-score
CGTCCTCA | -0.137 E-score
ACTAAGAT | 0.152 E-score
GATCATTA | 0.348 E-score
CAGTTGCA | -0.0443 E-score
ATGAAAGC | -0.0705 E-score
AATGTGCA | -0.108 E-score
GGTCATGA | 0.169 E-score

Sequence | binding signal
GGTCCGAA | -0.0438 E-score
ACTCCGCC | -0.2 E-score
CGAGGTGA | 0.0978 E-score
CCTACGAC | -0.0209 E-score
GCCGTGAC | -0.0143 E-score
CGCTCGAC | -0.246 E-score
AAGGTCGG | -0.0584 E-score
CGAACGCC | -0.298 E-score
CAATGTCA | -0.0476 E-score
CCAGGATA | 0.38 E-score
CGGCAAGA | 0.00449 E-score
AGGCCCCC | -0.281 E-score
GACGACAA | -0.179 E-score
GATTCGGC | -0.0368 E-score
AACGATGC | -0.0915 E-score
CAGGGACA | -0.155 E-score
AACTCATA | -0.159 E-score
ACCATAGT | -0.105 E-score
CTTCGGCC | -0.294 E-score
CGTTGGTA | 0.0551 E-score
ACATCTGG | 0.0442 E-score
CCACAATC | 0.0713 E-score
ATATGTCG | 0.272 E-score
TGGATGAA | -0.0436 E-score
AAAGGGGC | -0.122 E-score

Sequence | binding signal
CTGATTAC | -0.00664 E-score
GCGCGCGC | -0.152 E-score
CTCAAAGA | -0.183 E-score
GCTCTGAC | -0.225 E-score
GCGTCTGA | -0.068 E-score
GAAGTAAA | -0.192 E-score
AATGATGA | -0.0266 E-score
ATCTTCCG | 0.248 E-score
AATCTTAC | -0.00267 E-score
GAGGGTTA | -0.129 E-score
AACCATCC | 0.00677 E-score
CTATCGAA | 0.228 E-score
AGGCCGAT | 0.153 E-score
TCAGGGAA | 0.0207 E-score
AGTAAGAA | -0.0678 E-score
CACGCAGC | -0.272 E-score
CACAGGAA | -0.194 E-score
CACGGCTA | -0.0794 E-score
GCAGTTCC | -0.211 E-score
CGCGTCGC | -0.0916 E-score
GACGTACC | -0.0221 E-score
CAATGACG | -0.0537 E-score
ACGTGCGC | -0.273 E-score
CTCAGAGA | -0.0384 E-score
CCCTCATA | -0.0048 E-score

Sequence | binding signal
GGGTAGAA | -0.0311 E-score
CACGACGG | -0.0101 E-score
CACTGATG | -0.0679 E-score
GTCACGGA | 0.0948 E-score
AAACCATC | 0.113 E-score
CGTTCGAC | -0.0781 E-score
ATCTCCGC | 0.261 E-score
AGCGAGAC | 0.00266 E-score
CGAAGGCG | 0.0467 E-score
GTACGGGA | -0.0565 E-score
ATAGATAC | 0.393 E-score
ACGGTGCA | -0.0419 E-score
GGTAACCA | 0.0144 E-score
TATCGCCA | 0.364 E-score
ACCTAAAC | -0.17 E-score
CAGTAGGA | -0.125 E-score
ACCACTGG | 0.0213 E-score
ATACCATC | 0.384 E-score
CTGATCAC | 0.204 E-score
GGTGCCAC | -0.175 E-score
AAAGCATG | -0.171 E-score
ATAATGAT | 0.203 E-score
